This note sets out measurements from article PMC4336329 (PLoS ONE, 2015).

Molecules are shown by their SMILES. The campaign covered roughly 310,000 compounds. About 14,000 (4.5%) showed an effect of 50% or more. Effects have a minus sign here. The list shows a part of the results.
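Note: peak tail current of the secondary pulse compared with the same well before compound.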

In this assay the target is human ether-à-go-go-related gene (hERG) potassium channel (human, UniProt Q12809). Kind of assay: primary screen, population patch clamp on CHO cells stably expressing hERG.
human ether-à-go-go-related gene (hERG) potassium channel, sequence (Q12809 whole entry, looked up): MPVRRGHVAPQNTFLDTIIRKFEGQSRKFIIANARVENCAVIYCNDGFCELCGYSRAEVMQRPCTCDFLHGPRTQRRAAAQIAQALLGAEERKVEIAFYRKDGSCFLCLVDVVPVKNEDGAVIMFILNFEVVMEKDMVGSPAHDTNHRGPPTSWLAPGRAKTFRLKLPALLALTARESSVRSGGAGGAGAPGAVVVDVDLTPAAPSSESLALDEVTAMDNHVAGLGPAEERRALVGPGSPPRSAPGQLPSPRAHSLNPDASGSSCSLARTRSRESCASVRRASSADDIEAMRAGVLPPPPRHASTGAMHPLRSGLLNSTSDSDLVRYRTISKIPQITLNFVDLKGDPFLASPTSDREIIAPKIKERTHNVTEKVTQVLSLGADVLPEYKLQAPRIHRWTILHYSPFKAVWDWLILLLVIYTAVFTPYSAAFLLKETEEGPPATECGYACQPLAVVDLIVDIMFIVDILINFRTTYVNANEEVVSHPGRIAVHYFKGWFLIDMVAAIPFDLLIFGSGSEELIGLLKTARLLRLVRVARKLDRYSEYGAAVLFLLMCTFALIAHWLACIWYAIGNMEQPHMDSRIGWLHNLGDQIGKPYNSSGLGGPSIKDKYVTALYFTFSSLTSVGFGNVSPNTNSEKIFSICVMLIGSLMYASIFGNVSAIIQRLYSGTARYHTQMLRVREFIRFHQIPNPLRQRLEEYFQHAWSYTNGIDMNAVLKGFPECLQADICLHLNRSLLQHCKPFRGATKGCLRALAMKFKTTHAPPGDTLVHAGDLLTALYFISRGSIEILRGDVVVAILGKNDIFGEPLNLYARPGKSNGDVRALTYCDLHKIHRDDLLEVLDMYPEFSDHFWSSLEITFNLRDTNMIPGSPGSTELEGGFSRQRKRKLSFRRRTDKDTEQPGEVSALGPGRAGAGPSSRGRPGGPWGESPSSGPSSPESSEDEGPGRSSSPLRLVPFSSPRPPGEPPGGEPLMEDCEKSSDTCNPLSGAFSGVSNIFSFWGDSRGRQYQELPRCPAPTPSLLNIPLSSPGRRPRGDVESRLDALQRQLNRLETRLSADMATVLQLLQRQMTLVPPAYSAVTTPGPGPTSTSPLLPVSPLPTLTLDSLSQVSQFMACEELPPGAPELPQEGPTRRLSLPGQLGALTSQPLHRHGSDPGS
Regarding `O=C(O)c1cccnc1Sc1ccc(Cl)cc1`, the “hERG current change (%, negative = inhibition) at 10uM” value is reported as 23.3%.

For `CCOc1ccc(S(=O)(=O)N2CCC(C(=O)N3CCN(c4ccccc4F)CC3)CC2)cc1C`, the “hERG current change (%, negative = inhibition) at 10uM” value is recorded as -19%. Take `Cc1ccc(NC2=C(C(=O)c3ccccc3)N(C)S(=O)(=O)c3ccccc32)cc1`: the “hERG current change (%, negative = inhibition) at 10uM” value stood at 5.16%. Regarding `COc1ccc(NC(=O)CC(C)CC(=O)NCc2ccccc2)c(OC)c1` (stereo not shown), the “hERG current change (%, negative = inhibition) at 10uM” value is listed as -0.642%. In the case of `COc1ccc(N2C(=O)CCC(C(=O)N(C)C3CCCCC3)C2c2ccc(OC)c(OC)c2)cc1` (stereo not shown), the “hERG current change (%, negative = inhibition) at 10uM” value was 11%. Next, `COc1cccc(N(C(=O)c2ccco2)C(C(=O)NC2CCCC2)c2ccc(N3CCOCC3)cc2)c1` (stereo not shown): -10.4%. Next, `Cc1ccccc1OCCC(=O)OCC(=O)NC1CCCC1`: 0.814%; `Cc1ccc2c(c1)N(S(=O)(=O)c1cc(-c3onc(C)c3C)ccc1C)CCO2`: 14.9%; `CCCOC(=O)Nc1ccccc1C(N)=O`: 4.61%.

In the case of `COc1cccc(C(C(=O)NC2CCCCC2)N(C(=O)c2cccs2)c2ccc3c(c2)OCO3)c1` (stereo not shown), the “hERG current change (%, negative = inhibition) at 10uM” value turned out to be 0.359%. Next, `CC1(C)OC(=O)C(=CNC(=O)c2c(F)cccc2F)C(=O)O1`: 23.2%.

Turning to `CCCCNS(=O)(=O)c1ccc2nc(-c3cccnc3)cc(C(=O)NCCOC)c2c1`, the “hERG current change (%, negative = inhibition) at 10uM” value is reported as -12.1%. For the compound `CCOc1cc(C)nc(N2CCN(C3CCCCC3)CC2)n1`, the “hERG current change (%, negative = inhibition) at 10uM” value is -67.5%. `COc1ccc(-n2c(=S)[nH]c3cc(C(=O)Nc4ccccc4OC)ccc3c2=O)c(OC)c1`: the “hERG current change (%, negative = inhibition) at 10uM” value came out at 21.5%. Next, `Cc1cc(NC(=O)CSc2nc3ccccc3[nH]2)n(-c2ccccc2)n1`: 6.21%; `O=C(NCc1ccccc1)N1CCCC1`: 10.8%; `C#CCN1C(=O)S/C(=C/c2cc(C)n(CC)c2C)C1=O`: 0.0533%. Next, `C=CCNC(=O)C12CCC(C)(C(=O)[C@H]1Br)C2(C)C` (stereo partly shown): -1.61%; `Cc1cc(NC(=O)NC2CC(=O)N(c3ccc4c(c3)OCCO4)C2)no1` (stereo not shown): 0.346%.

Consider `Cc1ccc(CCNS(=O)(=O)c2ccc3c(c2)N(C)CCO3)cc1`, for which the “hERG current change (%, negative = inhibition) at 10uM” value was 6.53%. Next, `CCCOc1ccccc1Cn1c(=O)oc2ccccc21`: 3.07%; `COCCSc1nnc(NC(=O)Cc2ccccc2OC)s1`: -16.3%.

As for `CC(C)CNc1nc(Oc2ccc(=O)n(C)n2)nc(N2CCOCC2)n1`, the “hERG current change (%, negative = inhibition) at 10uM” value turned out to be 7.06%.

`CCOc1c(OC(C)=O)ccc(/C=C2\N=C(SCC)SC2=O)c1[N+](=O)[O-]`: the “hERG current change (%, negative = inhibition) at 10uM” value is 18.3%. `CC(C)=CCC(C)(C)/C=N/NC(N)=O`: the “hERG current change (%, negative = inhibition) at 10uM” value was 14.4%.
